Assay results: patent US9603889B2, “IAP antagonists” (BRISTOL-MYERS SQUIBB COMPANY, priority 2012, dated 2017)

Each compound was assayed against XIAP BIR2 (His-BIR2 (124-240/C202A/C213G)) (Homo sapiens (Human), UniProt P98170, C202A/C213G). Conditions: read-out: XIAP-BIR2 AlphaScreen IC50; 50 nM His-BIR2 (124-240/C202A/C213G), 50 nM Biotinylated SMAC peptide.
For `CN[C@@H](C)C(=O)N[C@H](C(=O)N1Cc2ccccc2C[C@H]1CN(Cc1cccc(C)c1C)C(=O)c1ccc(C(=O)N[C@H]2C[C@@H](C(=O)N[C@@H]3CCCc4ccccc43)N(C(=O)[C@@H](NC(=O)[C@H](C)NC)C(C)(C)C)C2)cc1)C(C)(C)C` [Example 36, N^1-(((S)-2-((S)-3,3-Dimethyl-2-((S)-2-(methylamino)propanamido)butanoyl)-1,2,3,4-tetrahydro-isoquinolin-3-yl)methyl)-N^4-((3S,5S)-1-((S)-3,3-dimethyl-2-((S)-2-(methylamino)propanamido)butanoyl)-5-(((R)-1,2,3,4-tetrahydro-naphthalen-1-yl)carbamoyl)pyrrolidin-3-yl)-N^1-(2,3-dimethyl-benzyl) terephthalamide], the IC50 was 1290 nM. `CN[C@@H](C)C(=O)N[C@H](C(=O)N1C[C@@H](NC(=O)c2ccc(CN(C(=O)[C@@H]3Cc4ccccc4CN3C(=O)[C@@H](NC(=O)[C@H](C)NC)C(C)(C)C)[C@H](C)c3ccccc3)cc2)C[C@H]1C(=O)N[C@@H]1CCCc2ccccc21)C(C)(C)C` [Example 23, (S)-2-((S)-3,3-Dimethyl-2-((S)-2-(methylamino)propanamido)butanoyl)-N-(4-(((3S,5S)-1-((S)-3,3-dimethyl-2-((S)-2-(methylamino)propanamido)butanoyl)-5-(((R)-1,2,3,4-tetra-hydronaphthalen-1-yl)carbamoyl)pyrrolidin-3-yl)carbamoyl)benzyl)-N-((R)-1-phenylethyl)-1,2,3,4-tetra-hydroisoquinoline-3-carboxamide] showed an IC50 of 170 nM. `CC[C@H](c1ccccc1)N(Cc1ccc(C(=O)N[C@H]2C[C@@H](C(=O)N[C@@H]3CCCc4ccccc43)N(C(=O)[C@@H](NC(=O)[C@H](C)NC)C(C)(C)C)C2)cc1)C(=O)[C@@H]1Cc2ccccc2CN1C(=O)[C@@H](NC(=O)[C@H](C)NC)C(C)(C)C` [Example 20, (S)-2-((S)-3,3-Dimethyl-2-((S)-2-(methylamino)propanamido)butanoyl)-N-(4-(((3S,5S)-1-((S)-3,3-dimethyl-2-((S)-2-(methylamino)propanamido)butanoyl)-5-(((R)-1,2,3,4-tetrahydro-naphthalen-1-yl)carbamoyl)pyrrolidin-3-yl)carbamoyl)benzyl)-N-((R)-1-phenylpropyl)-1,2,3,4-tetra-hydroisoquinoline-3-carboxamide] showed an IC50 of 320 nM. Work on `CN[C@@H](C)C(=O)N[C@H](C(=O)N1Cc2ccccc2C[C@H]1CN(C(=O)c1ccc(C(=O)N[C@H]2C[C@@H](C(=O)N[C@@H]3CCCc4ccccc43)N(C(=O)[C@@H](NC(=O)[C@H](C)NC)C(C)(C)C)C2)cc1)[C@H](C)c1ccc2ccccc2c1)C(C)(C)C` [Example 31, N^1-(((S)-2-((S)-3,3-Dimethyl-2-((S)-2-(methylamino)propanamido)butanoyl)-1,2,3,4-tetrahydro-isoquinolin-3-yl)methyl)-N^4-((3S,5S)-1-((S)-3,3-dimethyl-2-((S)-2-(methyl-amino)propanamido)butanoyl)-5-(((R)-1,2,3,4-tetrahydro-naphthalen-1-yl)carbamoyl)pyrrolidin-3-yl)-N^1-((R)-1-(naphthalen-2-yl)ethyl) terephthalamide] yielded an IC50 of 1690 nM. In the case of `CN[C@@H](C)C(=O)N[C@H](C(=O)N1Cc2ccccc2C[C@H]1CN(Cc1cccc(C)c1C)C(=O)c1ccc(C(=O)Nc2ccc3c(c2)CN(C(=O)[C@@H](NC(=O)[C@H](C)NC)C(C)(C)C)[C@H](C(=O)N[C@@H]2CCCc4ccccc42)C3)cc1)C(C)(C)C` [Example 35, N^1-(((S)-2-((S)-3,3-Dimethyl-2-((S)-2-(methylamino)propanamido)butanoyl)-1,2,3,4-tetra-hydroisoquinolin-3-yl)methyl)-N^4-((S)-2-((S)-3,3-dimethyl-2-((S)-2-(methylamino)propanamido)butanoyl)-3-(((R)-1,2,3,4-tetrahydro-naphthalen-1-yl)carbamoyl)-1,2,3,4-tetra-hydroisoquinolin-7-yl)-N^1-(2,3-dimethylbenzyl) terephthalamide], the IC50 is reported as 1810 nM. Work on `CN[C@@H](C)C(=O)N[C@H](C(=O)N1C[C@@H](NC(=O)c2ccc(CN(C(=O)[C@@H]3Cc4ccccc4CN3C(=O)[C@@H](NC(=O)[C@H](C)NC)C(C)(C)C)[C@H](C)c3ccccc3Cl)cc2)C[C@H]1C(=O)N[C@@H]1CCCc2ccccc21)C(C)(C)C` [Example 5, (S)-N-((R)-1-(2-Chlorophenyl)ethyl)-2-((S)-3,3-dimethyl-2-((S)-2-(methylamino)propanamido)butanoyl)-N-(4-(((3S,5S)-1-((S)-3,3-dimethyl-2-((S)-2-(methylamino)propanamido)butanoyl)-5-(((R)-1,2,3,4-tetrahydronaphthalen-1-yl)carbamoyl)pyrrolidin-3-yl)carbamoyl)benzyl)-1,2,3,4-tetrahydroisoquinoline-3-carboxamide] yielded an IC50 of 300 nM. For `CN[C@@H](C)C(=O)N[C@H](C(=O)N1Cc2ccccc2CC1C(=O)N(CC1(C(=O)NC2C[C@@H](C(=O)NC3CCCc4ccccc43)N(C(=O)[C@@H](NC(=O)[C@H](C)NC)C(C)(C)C)C2)CC1)[C@@H](COC)c1ccccc1)C(C)(C)C` (stereo partly drawn) [Example 38, (S)-2-((S)-3,3-Dimethyl-2-((S)-2-(methylamino)propanamido)butanoyl)-N-((1-(((3S,5S)-1-((S)-3,3-dimethyl-2-((S)-2-(methylamino)propanamido)butanoyl)-5-(((R)-1,2,3,4-tetrahydronaphthalen-1-yl)carbamoyl)pyrrolidin-3-yl)carbamoyl)cyclopropyl)methyl)-N-((S)-2-methoxy-1-phenylethyl)-1,2,3,4-tetrahydroisoquinoline-3-carboxamide, 2 TFA], the IC50 was 220 nM. Compound `CNC(C)C(=O)N[C@H](C(=O)N1C[C@@H](NC(=O)c2ccc(C(=O)N(C[C@@H]3Cc4ccccc4CN3C(=O)[C@@H](NC(=O)[C@H](C)NC)C(C)(C)C)[C@H](C)Cc3ccccc3F)cc2)C[C@H]1C(=O)N[C@@H]1CCCc2ccccc21)C(C)(C)C` (stereo in doubt) [Example 17, N^1-(((S)-2-((S)-3,3-dimethyl-2-((S)-2-(methylamino)propanamido)butanoyl)-1,2,3,4-tetra-hydroisoquinolin-3-yl)methyl)-N^4-((3S,5S)-1-((S)-3,3-dimethyl-2-((S)-2-(methyl-amino)propanamido)butanoyl)-5-(((R)-1,2,3,4-tetrahydro-naphthalen-1-yl)carbamoyl)pyrrolidin-3-yl)-N^1-((R)-1-(2-fluorophenyl)propan-2-yl) terephthalamide] has an IC50 of 590 nM. Compound `CN[C@@H](C)C(=O)N[C@H](C(=O)N1C[C@@H](NC(=O)c2ccc(CN(C(=O)[C@@H]3Cc4ccccc4CN3C(=O)[C@@H](NC(=O)[C@H](C)NC)C(C)(C)C)[C@H](C)Cc3ccccc3F)cc2)C[C@H]1C(=O)N[C@@H]1CCCc2ccccc21)C(C)(C)C` [Example 25, (S)-2-((S)-3,3-Dimethyl-2-((S)-2-(methylamino)propanamido)butanoyl)-N-(4-(((3S,5S)-1-((S)-3,3-dimethyl-2-((S)-2-(methylamino)propanamido)butanoyl)-5-(((R)-1,2,3,4-tetrahydro-naphthalen-1-yl)carbamoyl)pyrrolidin-3-yl)carbamoyl)benzyl)-N-((R)-1-(2-fluorophenyl)propan-2-yl)-1,2,3,4-tetrahydro-isoquinoline-3-carboxamide] has an IC50 of 650 nM. Work on `CN[C@@H](C)C(=O)N[C@H](C(=O)N1C[C@@H](NC(=O)c2ccc(CN(CCc3ccccc3)C(=O)[C@@H]3Cc4ccccc4CN3C(=O)[C@@H](NC(=O)[C@H](C)NC)C(C)(C)C)cc2)C[C@H]1C(=O)N[C@@H]1CCCc2ccccc21)C(C)(C)C` [Example 2, (S)-2-((S)-3,3-Dimethyl-2-((S)-2-(methylamino)propanamido)butanoyl)-N-(4-(((3S,5S)-1-((S)-3,3-dimethyl-2-((S)-2-(methylamino)propanamido)butanoyl)-5-(((R)-1,2,3,4-tetrahydronaphthalen-1-yl)carbamoyl)pyrrolidin-3-yl)carbamoyl)benzyl)-N-phenethyl-1,2,3,4-tetrahydroisoquinoline-3-carboxamide] yielded an IC50 of 850 nM. With `CCOc1ccccc1[C@@H](C)N(Cc1ccc(C(=O)N[C@H]2C[C@@H](C(=O)N[C@@H]3CCCc4ccccc43)N(C(=O)[C@@H](NC(=O)[C@H](C)NC)C(C)(C)C)C2)cc1)C(=O)[C@@H]1Cc2ccccc2CN1C(=O)[C@@H](NC(=O)[C@H](C)NC)C(C)(C)C` [Example 29, (S)-2-((S)-3,3-Dimethyl-2-((S)-2-(methylamino)propanamido)butanoyl)-N-(4-(((3S,5S)-1-((S)-3,3-dimethyl-2-((S)-2-(methyl-amino)propanamido)butanoyl)-5-(((R)-1,2,3,4-tetra-hydronaphthalen-1-yl)carbamoyl)pyrrolidin-3-yl)carbamoyl)benzyl)-N-((R)-1-(2-ethoxyphenyl)ethyl)-1,2,3,4-tetrahydro-isoquinoline-3-carboxamide] the IC50 was 340 nM. `CN[C@@H](C)C(=O)N[C@H](C(=O)N1C[C@@H](NC(=O)c2ccc(CN(Cc3ccc4ccccc4c3)C(=O)[C@@H]3Cc4ccccc4CN3C(=O)[C@@H](NC(=O)[C@H](C)NC)C(C)(C)C)cc2)C[C@H]1C(=O)N[C@@H]1CCCc2ccccc21)C(C)(C)C` [Example 14, (S)-2-((S)-3,3-Dimethyl-2-((S)-2-(methyl-amino)propanamido)butanoyl)-N-(4-(((3S,5S)-1-((S)-3,3-dimethyl-2-((S)-2-(methylamino)propanamido)butanoyl)-5-(((R)-1,2,3,4-tetra-hydronaphthalen-1-yl)carbamoyl)pyrrolidin-3-yl)carbamoyl)benzyl)-N-(naphthalen-2-ylmethyl)-1,2,3,4-tetrahydro-isoquinoline-3-carboxamide] gave an IC50 of 1720 nM.

Structures can show the parent of a compound that is named as a salt.
